# In PubChem BioAssay (NCATS):
# Where “and” joins values, the source holds several entries; their conditions need not be identical. Equal values may be shown once. Inconclusive results, whose numbers are uncertain, are shown with a selection of clear calls. For some of these results: A potency beside an inconclusive call is a rough fit, not a confirmed value. For some of these results: “Side channel” marks fits to a control or component signal instead of the main read-out. Calls of active or inactive are those of the source. Unless noted, the call rests on the fitted dose curve.
# Key:
# [1] = target: Tumor necrosis factor (Homo sapiens) (UniProt P01375); assay: qHTS assay to identify small molecules that stimulate Tumor Necrosis Factor-alpha (TNF-alpha) secretion (AID 651757; active means well fitted curve in the direction sought with a large enough effect in the signal ratio; inconclusive means small, poorly fitted or top-dose-only effect, or a change in a side signal; inactive means no such curve, though single readings can be large or run the other way; the % refers to the signal ratio; further: potency means the concentration at half of the fitted maximal effect; on activation (TNF-alpha secretion): 0% is about no effect); settings: Human cells, HTRF 665/615 ratio; activation (TNF-alpha secretion): at 92.2 µM (top of the series)
# Procedure, shortened: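 THP-1 cells, 3000/well; compound 17 hrs, 37 C; add cryptate/XL665 anti-TNF-alpha antibody pair; 3 hr RT; TR-FRET (HTRF) read of secreted TNF-alpha. Quantitative HTS format.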
# [2] = qHTS assay for small molecule activators of the p53 signaling pathway (AID 651743; active means well fitted activation curve with a large enough effect in the signal ratio, not every such curve was filed as active; inconclusive means small, poorly fitted or top-dose-only effect, or a change in a side signal; the % refers to the signal ratio; further: potency means the concentration at half of the fitted maximal effect; on activation: % of control where 0% means no effect); settings: HCT-116 p53RE-bla, beta-lactamase FRET ratio, 16 h; activation: active compounds read high
# Procedure, shortened: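 Here HCT-116 cells with an integrated p53-responsive beta-lactamase gene were incubated with compounds (16 hours, 37 C) after a 5-hour plating period; beta-lactamase activity was detected as fluorescence intensity via B/G FRET substrate.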
# [3] = qHTS assay for small molecule disruptors of the mitochondrial membrane potential - 1 hr assay (AID 651754); settings: ratio change, negative = depolarisation: at 92.2 µM (top of the series); further: nearly all actives have a fitted effect of over 35% in size; further: potency means the concentration at half of the fitted maximal effect; on ratio change, negative = depolarisation: on the % scale 0 is the no-effect control and ±100 the full control effect
# Procedure, shortened: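 Read-out: dye fluorescence at 490 nm ex/535 nm em (monomers) and 540 nm ex/590 nm em (aggregates) in HepG2 cells. Compound exposure 1 hr at 37C, followed by 30 min dye loading.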
# [4] = qHTS assay to identify small molecules that stimulate interleukin-8 (IL-8) secretion (AID 651758; active means well fitted activation curve with a large enough effect in the signal ratio; inconclusive means small, poorly fitted or top-dose-only effect, or effect the other way, or a change in a side signal; the % refers to the signal ratio; further: potency means the concentration at half of the fitted maximal effect; on activation: 0% is about no effect); settings: HTRF ratio (665/615)
# Procedure, shortened: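 Quantitative HTS in THP-1 monocytic cells at 2000 cells per well, with 16 hrs compound incubation at 37 C. IL-8 in the medium was then quantified by HTRF immunoassay, read after 1-3 hrs at room temperature.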
# [5] = qHTS assay for small molecule disruptors of the mitochondrial membrane potential - 5 hr assay (AID 651755); settings: JC-1-type ratio dye; ratio change, negative = disruption: at 92.2 µM (top of the series); further: nearly all actives have a fitted effect of over 40% in size; further: potency means the concentration at half of the fitted maximal effect; on ratio change, negative = disruption: on the % scale 0 is the no-effect control and ±100 the full control effect
# Procedure, shortened: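 Seed HepG2 overnight, add compound, incubate 5 hr at 37C and 5% CO2, stain 30 min with Mito-MPS, then measure monomer (490/535 nm) and aggregate (540/590 nm) fluorescence.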
# [6] = qHTS assay for small molecule activators of the nuclear factor-kappa B (NF-kB) signaling pathway (AID 651749; active means well fitted activation curve with a large enough effect in the signal ratio; inconclusive means small, poorly fitted or top-dose-only effect, or a change in a side signal; the % refers to the signal ratio; further: potency means the concentration at half of the fitted maximal effect; on activation: % of control where 0% means no effect); settings: NF-kB-bla ME-180 cells, beta-lactamase FRET ratio, 16 h; activation: active compounds read high
# Procedure, shortened: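 Beta-lactamase reporter expression, controlled by NF-kB response elements in ME-180 cells, was quantified fluorometrically via FRET disruption; cells at 2,000/well had been incubated with 23 nL test compound for 16 hr.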
# [7] = target: Peroxisome proliferator-activated receptor alpha (Homo sapiens) (UniProt Q07869); assay: qHTS assay for small molecule agonists of the peroxisome proliferator-activated receptor alpha (PPARalpha) signaling pathway (AID 651778; active means well fitted curve in the direction sought with a large enough effect; inconclusive means small, poorly fitted or top-dose-only effect, or another doubt; inactive means no such curve, though single readings can be large; an effect the other way counts as inactive or inconclusive; further: % of control where 0% means no effect); settings: PathHunter PPARalpha complementation, chemiluminescence, 6 h; active compounds read high
# Procedure, shortened: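 Cells plated at 2,000/well and held overnight at 37 C, 5% CO2, then compound added by pin tool for 6 hr; after PathHunter detection reagent and 60 min at room temperature, chemiluminescence from enzyme complementation was read.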
# [8] = target: Nuclear receptor ROR-gamma (Homo sapiens) (UniProt P51449); assay: qHTS assay for small molecule antagonists of the retinoid-related orphan receptor gamma (ROR-gamma) signaling pathway (AID 651802; active means well fitted curve in the direction sought with a large enough effect; inconclusive means small, poorly fitted or top-dose-only effect, or another doubt; inactive means no such curve, though single readings can be large; an effect the other way counts as inactive or inconclusive; further: potency means the concentration at half of the fitted maximal effect; nearly all actives have a fitted effect of over 60% in size)
# Procedure, shortened: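 Luciferase read-out: ONE-Glo luminescence after 30 min at room temperature, following 16hr doxycycline induction at 37C, 5% CO2 of CHO cells with TET-inducible ROR and RORE-LUC reporter; decreased luminescence = reduced reporter activity.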
# [9] = target: Phosphoglycerate kinase, glycosomal (Trypanosoma brucei brucei) (UniProt P07378); assay: qHTS for inhibitors of Phosphogylcerate Kinase: Hit Validation Screen (AID 686980; active means well fitted curve in the direction sought with a large enough effect; inconclusive means small, poorly fitted or top-dose-only effect, or another doubt; inactive means no such curve, though single readings can be large; an effect the other way counts as inactive or inconclusive; further: potency means the concentration at half of the fitted maximal effect; nearly all actives have a fitted effect of over 65% in size); settings: TbPGK coupled GAPDH assay, Kinase-Glo luminescence
# Procedure, shortened: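 Recombinant glycosomal PGK reaction used 1,3-bisphosphoglycerate generated in-well by GAPDH (100nM final) in 100mM TEA pH 7.6, 5mM MgCl2, 0.01% Tween-20. After 60 minutes at room temperature, ATP was read by Kinase-Glo Plus luminescence end-point.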
# [10] = activation: at 92.2 µM (top of the series)
# Tags describe the fitted curve by direction and shape.
# Sequence of UniProt Q07869 (Q07869 whole entry, looked up): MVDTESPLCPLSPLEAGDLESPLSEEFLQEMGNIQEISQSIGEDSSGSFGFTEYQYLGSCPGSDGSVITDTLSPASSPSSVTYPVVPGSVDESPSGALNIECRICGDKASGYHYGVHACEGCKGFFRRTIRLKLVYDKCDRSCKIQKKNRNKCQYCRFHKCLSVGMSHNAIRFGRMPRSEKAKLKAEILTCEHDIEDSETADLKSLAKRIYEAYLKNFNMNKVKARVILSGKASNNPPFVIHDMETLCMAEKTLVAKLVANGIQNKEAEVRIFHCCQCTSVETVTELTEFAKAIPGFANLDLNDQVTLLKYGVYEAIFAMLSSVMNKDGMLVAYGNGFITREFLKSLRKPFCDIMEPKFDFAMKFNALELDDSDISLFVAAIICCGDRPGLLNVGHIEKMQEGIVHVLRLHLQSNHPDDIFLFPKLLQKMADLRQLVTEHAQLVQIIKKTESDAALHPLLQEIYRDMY
# Sequence of UniProt P51449 (P51449 whole entry, looked up): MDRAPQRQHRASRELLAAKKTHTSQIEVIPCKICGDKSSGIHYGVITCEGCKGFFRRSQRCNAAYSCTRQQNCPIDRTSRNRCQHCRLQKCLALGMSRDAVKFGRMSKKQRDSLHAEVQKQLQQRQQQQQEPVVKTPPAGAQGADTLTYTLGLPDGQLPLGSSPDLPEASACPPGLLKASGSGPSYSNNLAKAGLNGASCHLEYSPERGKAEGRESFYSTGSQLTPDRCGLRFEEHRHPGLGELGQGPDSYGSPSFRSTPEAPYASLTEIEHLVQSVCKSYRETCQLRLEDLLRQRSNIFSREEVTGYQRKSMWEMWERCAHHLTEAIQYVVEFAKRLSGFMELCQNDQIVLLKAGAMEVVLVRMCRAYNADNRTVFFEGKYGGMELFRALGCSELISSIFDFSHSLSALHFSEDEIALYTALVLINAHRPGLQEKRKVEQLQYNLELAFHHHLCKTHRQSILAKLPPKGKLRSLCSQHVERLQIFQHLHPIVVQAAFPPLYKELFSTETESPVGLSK
# Sequence of UniProt P01375 (P01375 whole entry, looked up): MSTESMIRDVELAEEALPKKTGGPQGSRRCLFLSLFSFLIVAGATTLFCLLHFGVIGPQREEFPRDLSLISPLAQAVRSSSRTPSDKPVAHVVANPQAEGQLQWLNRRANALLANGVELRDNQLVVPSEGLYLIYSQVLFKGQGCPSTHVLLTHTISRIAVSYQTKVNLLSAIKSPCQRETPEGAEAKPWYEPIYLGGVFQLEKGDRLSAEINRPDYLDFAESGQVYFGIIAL
# Sequence of UniProt P07378 (P07378 whole entry, looked up): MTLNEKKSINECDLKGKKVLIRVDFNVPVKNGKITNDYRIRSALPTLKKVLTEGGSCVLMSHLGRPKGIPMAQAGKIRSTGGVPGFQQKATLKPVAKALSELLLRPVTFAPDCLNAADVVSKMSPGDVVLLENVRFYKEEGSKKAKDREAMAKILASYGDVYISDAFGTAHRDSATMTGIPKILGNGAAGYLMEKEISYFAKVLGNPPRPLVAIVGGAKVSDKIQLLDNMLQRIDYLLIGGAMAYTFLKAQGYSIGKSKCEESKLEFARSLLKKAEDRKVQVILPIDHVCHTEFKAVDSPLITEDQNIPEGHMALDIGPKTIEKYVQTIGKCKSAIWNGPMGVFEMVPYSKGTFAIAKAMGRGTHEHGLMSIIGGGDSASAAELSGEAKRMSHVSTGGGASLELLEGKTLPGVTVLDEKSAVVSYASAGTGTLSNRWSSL
smiles,measurement,setting,value
Cc1cc(O)c2c(c1)C(=O)c1cc(O)cc(O)c1C2=O,activation (TNF-alpha secretion),[1],inconclusive: 3.52%
O=c1cc(-c2ccc(O)cc2)oc2cc(O)cc(O)c12,Potency,[2],"inconclusive: 35.5 µM [activator, single point] and inconclusive: 31.6 µM [activator, single point]"
same,Potency,[3],active: 2.98 µM
same,activation (TNF-alpha secretion),[1],inconclusive: 0.568%
same,Potency,[4]; [10],"inconclusive: 66.8 µM [inhibitor, partial curve]"
CC(C)(C)c1ccc(O)c(O)c1,Potency,[3],active: 37.6 µM
same,"ratio change, negative = disruption",[5],inconclusive: -43.7%
same,Potency,[4]; [10],"inconclusive: 75 µM [activator, partial curve, poor fit]"
Nc1nc2ccc([N+](=O)[O-])cc2s1,Potency,[3],active: 16.8 µM
same,activation (TNF-alpha secretion),[1],inconclusive: -0.746%
same,Potency,[4]; [10],"inconclusive: 75 µM [inhibitor, single point]"
S=c1[nH]c2ccccc2s1,activation (TNF-alpha secretion),[1],inconclusive: 0.341%
same,Potency,[4]; [10],inactive
Oc1ccc(/C=C/c2cc(O)cc(O)c2)cc1,activation,[6],inconclusive: 9.65%
same,activation (TNF-alpha secretion),[1],inconclusive: 1.87%
same,activation,[4]; [10],inconclusive: 20.7%
same,max response,[7],inactive: -3.92% and inactive: -4.52%
c1ccc2[nH]c(-c3cscn3)nc2c1,Potency,[3],"inconclusive: 35.5 µM [side channel, rising, partial curve]"
same,Potency,[5],"inconclusive: 39.8 µM [side channel, rising, partial curve]"
same,Potency,[1],inactive
same,activation,[4]; [10],inconclusive: -6.72%
N=C1N=C(N)c2cc3ccccc3cc21,Potency,[6],"inconclusive: 56.2 µM [activator, partial curve]"
same,Potency,[5],"inconclusive: 18.8 µM [inhibitor, partial curve]"
same,activation,[4]; [10],inconclusive: -11.9%
CCN(CC)CCOc1ccc(/C(=C(\Cl)c2ccccc2)c2ccccc2)cc1,Potency,[6],"inconclusive: 44.7 µM [cytotoxic, partial curve]"
c1cnc2c(c1)ccc1cccnc12,Potency,[2],"inconclusive: 35.5 µM [side channel, falling, full curve, poor fit]"
same,"ratio change, negative = disruption",[5],inconclusive: -27.9%
same,Potency,[1],"inconclusive: 33.5 µM [activator, single point]"
same,activation,[4]; [10],inconclusive: -3.49%
same,Potency,[8],active: 2.37 µM
Nc1ccccc1N,Potency,[3],active: 3.76 µM
same,Potency,[5],active: 5.96 µM
same,activation (TNF-alpha secretion),[1],inconclusive: 2.33%
same,activation,[4]; [10],inconclusive: 22.9%
CC(=O)Oc1ccccc1C(=O)Nc1ncc([N+](=O)[O-])s1,activation (TNF-alpha secretion),[1],inconclusive: 2.1%
same,activation,[4]; [10],inconclusive: -9.59%
Nc1ccc(O)c(C(=O)O)c1,activation (TNF-alpha secretion),[1],inconclusive: 2.17%
same,activation,[4]; [10],inconclusive: 17.3%
Nc1ccc([N+](=O)[O-])cc1O,activation (TNF-alpha secretion),[1],inconclusive: 0.318%
same,activation,[4]; [10],inconclusive: 29.8%
CCCCC(CC)COC(=O)C(C#N)=C(c1ccccc1)c1ccccc1 (stereo not given),Potency,[3],"inconclusive: 42.2 µM [inhibitor, single point]"
same,Potency,[5],"inconclusive: 66.8 µM [inhibitor, partial curve, poor fit]"
same,activation,[4]; [10],inconclusive: -19%
same,Potency,[8],"inconclusive: 33.5 µM [inhibitor, partial curve, poor fit]"
Nc1ccc(S(=O)(=O)c2ccc(N)cc2)cc1,activation (TNF-alpha secretion),[1],inconclusive: -0.189%
same,Potency,[4]; [10],"inconclusive: 66.8 µM [inhibitor, partial curve]"
CN(C)c1ccc(C(=C2C=CC(=[N+](C)C)C=C2)c2ccccc2)cc1,Potency,[2],"inconclusive: 17.8 µM [side channel, falling, full curve]"
same,Potency,[6],"inconclusive: 39.8 µM [side channel, falling, partial curve]"
same,Potency,[1],"inconclusive: 42.2 µM [rising, partial curve]"
same,activation,[4]; [10],inconclusive: -9.26%
Cc1ccc(N)cc1O,Potency,[3],active: 23.7 µM
same,"ratio change, negative = disruption",[5],inconclusive: -26.9%
same,Potency,[4]; [10],inactive
CC(C)NCC(O)c1ccc(O)c(O)c1 (stereo not given),Potency,[1],inactive
same,Potency,[4]; [10],"inconclusive: 0.0668 µM [activator, full curve, poor fit]"
Cc1ccc(C)c(OCCCC(C)(C)C(=O)O)c1,Potency,[3],inactive
same,Potency,[4]; [10],"inconclusive: 75 µM [rising, single point]"
Nc1ccc(N=Nc2ccccc2)c(N)n1,activation,[6],inconclusive: 9.57%
same,Potency,[3],active: 18.8 µM
same,activation (TNF-alpha secretion),[1],inconclusive: 2.67%
same,Potency,[4]; [10],"inconclusive: 119 µM [rising, partial curve, poor fit]"
CCCCCCCCCCCCCCCCCC(=O)O,Potency,[6],"inconclusive: 0.0141 µM [side channel, rising, full curve, poor fit]"
same,activation,[4]; [10],inconclusive: 11.7%
N[C@@H](Cc1c[nH]c2ccc(O)cc12)C(=O)O,"ratio change, negative = depolarisation",[3],inconclusive: -28%
same,activation (TNF-alpha secretion),[1],inconclusive: 1.25%
same,activation,[4]; [10],inconclusive: 19.6%
same,Potency,[8],"inconclusive: 33.5 µM [inhibitor, partial curve, poor fit]"
CN(C)c1ccc2nc3ccc(=[N+](C)C)cc-3sc2c1,Potency,[2],active: 20 µM
same,Potency,[1],active: 10.6 µM
same,Potency,[4]; [10],"inconclusive: 26.6 µM [rising, partial curve]"
O=C(Nc1ccc([N+](=O)[O-])cc1Cl)c1cc(Cl)ccc1O,Potency,[2],active: 0.891 µM
O=C(O)c1cc(O)c2c(c1)C(=O)c1cccc(O)c1C2=O,activation,[2],inconclusive: 30.2%
same,Potency,[5],active: 5.31 µM
same,activation (TNF-alpha secretion),[1],inconclusive: 4.1%
same,Potency,[4]; [10],"inconclusive: 75 µM [activator, single point]"
NC(=O)N/N=C/c1ccc([N+](=O)[O-])o1,"ratio change, negative = depolarisation",[3],inconclusive: -21%
same,Potency,[5],inactive
same,activation (TNF-alpha secretion),[1],inconclusive: 0.339%
same,Potency,[4]; [10],inactive
same,Potency,[8],"inconclusive: 42.2 µM [inhibitor, partial curve, poor fit]"
O=c1c(-c2ccc(O)cc2)coc2cc(O)cc(O)c12,activation (TNF-alpha secretion),[1],inconclusive: 0.895%
CCCOC(=O)c1ccc(O)cc1,activation,[4]; at 92.2 µM (top of the series),inactive: 19.7%
c1ccc2sc(SSc3nc4ccccc4s3)nc2c1,max response,[7],inactive: -2.43% and inactive: -7.65%
O=C1c2ccccc2C(=O)c2c1ccc(O)c2O,Potency,[9],"inconclusive: 20.6 µM [inhibitor, partial curve]"
Cc1ccc(O)c(N=Nc2ccccc2)n1,Potency,[9],active: 14.6 µM
